SMILES strings stand for the structures. Out of some 310,000 compounds screened, about 14,000 (4.5%) showed an effect of 50% or more. Effects have a minus sign here. This is one part of the list.
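Note: peak tail current of the secondary pulse compared with the same well before compound.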

The target in this assay is human ether-à-go-go-related gene (hERG) potassium channel (human, UniProt Q12809). As to the kind of experiment: primary screen, population patch clamp on CHO cells stably expressing hERG.
human ether-à-go-go-related gene (hERG) potassium channel, sequence (Q12809 whole entry, looked up): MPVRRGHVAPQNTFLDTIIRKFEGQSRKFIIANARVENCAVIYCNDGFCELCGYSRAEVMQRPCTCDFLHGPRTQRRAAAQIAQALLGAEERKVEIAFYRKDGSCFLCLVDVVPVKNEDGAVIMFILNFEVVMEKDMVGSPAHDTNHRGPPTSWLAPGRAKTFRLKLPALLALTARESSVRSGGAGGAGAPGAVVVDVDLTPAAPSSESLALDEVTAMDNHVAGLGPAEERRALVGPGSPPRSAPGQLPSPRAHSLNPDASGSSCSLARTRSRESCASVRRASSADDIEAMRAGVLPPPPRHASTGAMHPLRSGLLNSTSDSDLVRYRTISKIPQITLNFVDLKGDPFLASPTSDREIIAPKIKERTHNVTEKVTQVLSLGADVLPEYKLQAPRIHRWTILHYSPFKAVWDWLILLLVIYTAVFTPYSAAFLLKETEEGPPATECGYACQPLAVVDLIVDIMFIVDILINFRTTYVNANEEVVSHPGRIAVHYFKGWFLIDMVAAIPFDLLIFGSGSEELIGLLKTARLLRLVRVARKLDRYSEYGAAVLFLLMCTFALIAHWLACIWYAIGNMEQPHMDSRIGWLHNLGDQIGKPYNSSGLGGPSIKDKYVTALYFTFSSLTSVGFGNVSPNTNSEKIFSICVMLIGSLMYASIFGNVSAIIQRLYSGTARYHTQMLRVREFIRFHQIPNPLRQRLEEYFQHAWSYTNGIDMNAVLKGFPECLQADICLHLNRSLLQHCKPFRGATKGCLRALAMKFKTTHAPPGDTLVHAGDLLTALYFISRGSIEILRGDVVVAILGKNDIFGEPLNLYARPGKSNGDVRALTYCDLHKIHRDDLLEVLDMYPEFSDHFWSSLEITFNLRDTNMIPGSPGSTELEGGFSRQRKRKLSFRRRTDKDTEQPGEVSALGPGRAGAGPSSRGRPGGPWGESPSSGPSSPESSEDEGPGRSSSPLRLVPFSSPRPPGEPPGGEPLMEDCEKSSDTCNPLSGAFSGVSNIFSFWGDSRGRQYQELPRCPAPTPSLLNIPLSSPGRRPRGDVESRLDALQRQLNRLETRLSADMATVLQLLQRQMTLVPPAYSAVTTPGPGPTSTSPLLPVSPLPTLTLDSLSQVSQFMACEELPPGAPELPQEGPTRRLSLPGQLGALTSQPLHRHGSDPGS
Turning to `CC1CC(C)CN(C(=O)c2ccc(-c3ccc([N+](=O)[O-])cc3)o2)C1` (stereo not shown), the “hERG current change (%, negative = inhibition) at 10uM” value is -69.1%. Turning to `O=C(N/N=C/c1cnc(N2CCCCC2)s1)c1ccc(C(F)(F)F)cc1`, the “hERG current change (%, negative = inhibition) at 10uM” value stood at 25.5%. For the molecule `O=[N+]([O-])c1cc([N+](=O)[O-])c2cc(-c3cccnc3)[nH]c2c1`, the “hERG current change (%, negative = inhibition) at 10uM” value was found to be 15.2%. The same measure for `CC(C)CN(CC(C)C)C(=O)c1cc(S(=O)(=O)N2CCCCC2)c[nH]1`: 2.01%.

`NC(=O)CCCn1c(C(=O)c2ccc(Cl)cc2)c2ccc(C(F)(F)F)cc2[n+]1[O-]`: the “hERG current change (%, negative = inhibition) at 10uM” value is on record as -77.9%. In the case of `COc1cccc(OCC(O)CN2CCN(c3ccc(F)cc3)CC2)c1.Cl` (stereo not shown) it was -58.6%; in that of `CC(=O)c1cn(CC(=O)Nc2ccc(C)c(C)c2)c2ccccc12`, 20.8%. On to `CCOc1ccc(CN(C)CC(=O)Nc2cccc(C)c2)cc1OC`, for which the “hERG current change (%, negative = inhibition) at 10uM” value was -77%.

As to `O=[N+]([O-])c1ccc(/C=N/Nc2ccccn2)cc1`, the “hERG current change (%, negative = inhibition) at 10uM” value came out at 17.2%. In the case of `CCOc1cccc2c1OC1(C)CC2NC(=O)N1c1ccc(OC)cc1` (stereo not shown) it was 11.2%; in that of `CCOC(=O)CSc1cc(CS(=O)(=O)c2ccccc2)nc(-c2ccccc2)n1`, 8.85%; in that of `COCCNC(=S)NC1CC2CCC(C1)N2Cc1ccccc1` (stereo not shown), 2.78%. For the molecule `Cc1ccc(CCNC(=O)Cn2cccc2)cc1`, the “hERG current change (%, negative = inhibition) at 10uM” value is given as -3.83%. In the case of `O=C(Nc1cccc(F)c1)c1coc(=O)c(Br)c1` it was 5.32%; in that of `O=C(Cn1cccc1)Nc1ccc(OC(F)(F)F)cc1`, -7.17%. Regarding `COc1cc(Cl)c(NS(=O)(=O)c2c(C(=O)N3CCCC3)c(C)n(C)c2C)c(OC)c1`, the “hERG current change (%, negative = inhibition) at 10uM” value was found to be 4.89%. The same measure for `C=CCOc1ccc(CNCCc2ccc(S(N)(=O)=O)cc2)cc1.Cl`: -81.4%; for `O=C(COc1ccc2ccccc2c1)NNC(=O)c1ccccc1`: 20.7%. In the case of `O=C(Nc1ccccc1N1CCOCC1)c1cccc2c(Br)cccc12` it was 23.8%; in that of `COc1ccc2[nH]c(C(=O)NCCN3CCOCC3)cc2c1`, 0.45%; in that of `Cc1ccc(O)c(NC(=S)NC(=O)C(C)C)c1`, 6.82%. As to `CCC(c1nnnn1Cc1ccco1)N1CCN(c2cc(Cl)ccc2C)CC1.Cl` (stereo not shown), the “hERG current change (%, negative = inhibition) at 10uM” value was -8.76%. Regarding `O=C(CCl)N1CCN(S(=O)(=O)Cc2ccccc2)CC1`, the “hERG current change (%, negative = inhibition) at 10uM” value is listed as -2.13%. Regarding `COc1ccc(NC(=O)NC(=O)c2ccccc2)cc1`, the “hERG current change (%, negative = inhibition) at 10uM” value was determined as 18.6%. On to `O=C(COC(=O)CNC(=O)c1ccco1)Nc1ncc(Cl)cc1Cl`, for which the “hERG current change (%, negative = inhibition) at 10uM” value is 7.02%. In the case of `Cc1cc(C(=O)NCCc2ccccc2)c2cc(F)ccc2n1`, the “hERG current change (%, negative = inhibition) at 10uM” value is reported as 2.72%. Turning to `COc1ccc(NC(=O)CN(C)C(=O)c2cccc(S(=O)(=O)N3CCN(Cc4ccccc4)CC3)c2)cc1`, the “hERG current change (%, negative = inhibition) at 10uM” value is recorded as -30.6%. For `Cc1cc(NS(=O)(=O)c2ccc(NC(=O)c3cccc(OC(F)F)c3)cc2)nc(C)n1`, the “hERG current change (%, negative = inhibition) at 10uM” value worked out at 14.5%. In the case of `N#C/C(=C\c1ccccc1C(F)(F)F)C(=O)Nc1ccccc1` it was 3.67%. Turning to `COc1ccc(S(=O)(=O)c2nnn(-c3ccccc3Cl)c2N)cc1`, the “hERG current change (%, negative = inhibition) at 10uM” value came to 2.54%.

Take `Cc1cccc(N2CCN(C(=O)Cc3ccccc3[N+](=O)[O-])CC2)c1C`: the “hERG current change (%, negative = inhibition) at 10uM” value was 1.57%. In the case of `COc1ccc(NC(=O)CCCn2nc(C)c3c(C)n(-c4ccccc4)nc3c2=O)cc1`, the “hERG current change (%, negative = inhibition) at 10uM” value was 10.8%. In the case of `O=C(O)c1ccc(-c2ccc(/C=c3/sc4nc5ccccc5n4c3=O)o2)cc1Cl` it was 20.8%.

For the molecule `Cc1ccc(CSCC(=O)N/N=C/c2cccc(OC3CSC3)c2)cc1`, the “hERG current change (%, negative = inhibition) at 10uM” value was found to be 11.4%. The same measure for `O=C(CCCOc1ccc(Cl)cc1Cl)NCCCn1ccnc1`: -62.5%; for `Cc1cc(=O)oc2cc(Oc3ccc(C(N)=O)cc3[N+](=O)[O-])ccc12`: -20.7%; for `O=C(CCS(=O)(=O)c1ccc(Br)cc1)Nc1ccc(Br)cc1F`: 0.146%. As to `O=C(Nc1ccc(N2CCCCC2)cc1)c1ccc2ccccc2n1`, the “hERG current change (%, negative = inhibition) at 10uM” value is given as 22.5%. In the case of `COc1cccc(-c2cc(C(=O)NC3CC3)c3ccccc3n2)c1` it was -51.2%; in that of `COc1cc(CNc2ccccc2Oc2cc(=O)n(C)c(=O)n2C)cc(OC)c1OC`, 4.95%. The same measure for `O=C(Nc1nc2c(cc3c4c(cccc42)CC3)s1)c1ccccc1Cl`: 14.7%; for `O=C(COc1ccc(Br)cc1)Nc1ccc2c(c1)C(=O)NC2=O`: 20.5%; for `CCc1ccc(-c2nn(-c3ccccc3C)cc2C(=O)N2CCN(C3CCS(=O)(=O)C3)CC2)cc1` (stereo not shown): -1.98%. In the case of `CCCCOC(=O)c1ccc(NC(=O)COC(=O)c2ccc3ncsc3c2)cc1` it was -9.67%. Regarding `O=C(CN1CCN(c2ccc(O)cc2)CC1)NC1CCCc2ccccc21` (stereo not shown), the “hERG current change (%, negative = inhibition) at 10uM” value is 11%. Consider `O=C1C2C3CC(C(Br)C3Br)C2C(=O)N1CC1CCCO1` (stereo not shown), for which the “hERG current change (%, negative = inhibition) at 10uM” value is given as -15.4%. In the case of `COc1ccc(C(=O)COC(=O)c2sc(C)nc2C)cc1Cl` it was 9.06%. As for `O=C(NCc1ccccc1)C1=C[C@@H](C2CC2)C[C@@H](OCCCCO)O1`, the “hERG current change (%, negative = inhibition) at 10uM” value was 6.29%. Turning to `CCOC(=O)C1=C(C)N(C)C(=O)NC1c1ccc2c(c1)OCO2` (stereo not shown), the “hERG current change (%, negative = inhibition) at 10uM” value is on record as 12.2%. In the case of `COc1ccc(OC)c(CNc2nc3ccccc3n2CCN2CCCCC2)c1` it was -72.4%. The same measure for `Cc1cccc(CCNC(=O)C2CCCN(S(=O)(=O)c3cccc4nsnc34)C2)c1` (stereo not shown): -7.04%.

As for `CC(=O)N1N=C(c2cccnc2)CC1c1ccccc1O` (stereo not shown), the “hERG current change (%, negative = inhibition) at 10uM” value is given as -3.56%. The same measure for `CCOC(=O)c1ccc(NC(=S)N(CCCN2CCCC2)Cc2cccs2)cc1`: -67.5%. In the case of `O=C(CN1CCN(c2ccc(F)cc2)CC1)c1cccs1` it was 35.6%; in that of `CCS(=O)(=O)N1CCC(C(=O)NCc2cc(OC)ccc2OC)CC1`, -1.66%. The same measure for `COc1ccc(N=c2cc(-c3ccc(OC)cc3)oc3ccccc23)cc1`: 4.41%; for `COCCCNC(=O)CSc1nc2sc(C(=O)OC)c(C)c2c(=O)n1N`: -24.6%. For the molecule `O=C(Nc1ccc(OCC(F)(F)C(F)F)cc1)c1ccncc1`, the “hERG current change (%, negative = inhibition) at 10uM” value is on record as -33.9%. The same measure for `COc1cc2ccccc2cc1C(=O)N(CCN(C)C)c1nc2c(F)cccc2s1.Cl`: -38.4%; for `O=C(c1cc2c(s1)-c1ccccc1OC2)N1CCC2(CC1)OCCO2`: -37.9%. Turning to `CCOc1ccc(C(=O)Nc2ccncc2)cc1`, the “hERG current change (%, negative = inhibition) at 10uM” value is -7.53%.

On to `COc1ccc(-c2c(C(=O)O)c(-c3ccccc3)cn2C)cc1`, for which the “hERG current change (%, negative = inhibition) at 10uM” value amounted to 28.8%. Regarding `COCCN1C(=O)N[C@@H](CCc2ccccc2)[C@H](C(C)=O)[C@H]1C`, the “hERG current change (%, negative = inhibition) at 10uM” value worked out at 7.22%. In the case of `O=C(CSCc1ccccc1Br)NNC(=S)NCc1ccco1` it was 1.17%; in that of `O=C(Nc1ccc(Cl)c(C(F)(F)F)c1)[C@@H]1CC=C[C@@H]2CCN(C3CCCCC3)C(=O)[C@@H]21`, 8.19%. In the case of `CN(C(=O)COC(=O)/C=C/c1ccc2c(c1)OCO2)c1c(N)n(Cc2ccccc2)c(=O)[nH]c1=O` it was 10.2%. In the case of `Cc1nc(Oc2ccccc2)c2ccccc2n1` it was 4.59%.

With `Cc1ccc(-c2nnc(SCC(=O)N(CC(C)C)c3c(N)n(Cc4ccccc4)c(=O)[nH]c3=O)n2N)cc1`, the “hERG current change (%, negative = inhibition) at 10uM” value was -2.24%. The same measure for `NC(=O)CSc1nnc(-c2ccccn2)n1N`: 9.98%; for `O=C(c1ccccc1)c1cncc(Br)c1`: 1.72%. Regarding `CCOC(=O)Cc1csc(NC(=O)CC)n1`, the “hERG current change (%, negative = inhibition) at 10uM” value stood at 3.71%. In the case of `COc1ccc(/C=N\NC(=O)c2ccccc2OC)cc1COc1c(F)c(F)c(F)c(F)c1F` it was 19.3%; in that of `COc1ccc(OC)c(NC(=O)C2CCN(C(=O)c3cccs3)CC2)c1`, 15.7%. `O=C(CN1CCN(c2ccc(F)cc2)CC1)NCC1CCCO1` (stereo not shown): the “hERG current change (%, negative = inhibition) at 10uM” value is -2.94%. In the case of `O=C(Nc1ccccc1C(=O)NCC1CCCO1)c1ccccc1F` (stereo not shown), the “hERG current change (%, negative = inhibition) at 10uM” value stood at 12.4%. The same measure for `COc1ccc(-c2nc(CN3CCC(c4ccccc4)CC3)c(C)o2)cc1OC`: -37.7%.

Consider `CCCN1CCN(CCCNC(=O)C(CC)n2nc(C)c3sc4ccccc4c3c2=O)CC1` (stereo not shown), for which the “hERG current change (%, negative = inhibition) at 10uM” value is -48.4%.

For the molecule `CS(=O)(=O)N1CCc2ccc(NC(=O)C3CCCO3)cc2C1` (stereo not shown), the “hERG current change (%, negative = inhibition) at 10uM” value was 18.8%. The same measure for `O=C(O)c1cc(-c2cccc3ccccc23)nc2ccccc12`: 14.1%. The same measure for `Cc1ccc(S(=O)(=O)NCc2ccc(N3CCN(C(=O)OC(C)(C)C)CC3)cc2)cc1`: 9.55%. For the molecule `COc1ccc(CN2C(=O)CN(C3CCCCCC3)C(=O)C2c2ccc(F)cc2)cc1` (stereo not shown), the “hERG current change (%, negative = inhibition) at 10uM” value turned out to be 3.27%.

Turning to `Cc1ccccc1SCC(=O)Nc1cc(S(=O)(=O)N2CCOCC2)ccc1N1CCOCC1`, the “hERG current change (%, negative = inhibition) at 10uM” value was -8.57%.

On to `Clc1ccc(OCCSc2nnnn2C2CCCCC2)cc1`, for which the “hERG current change (%, negative = inhibition) at 10uM” value is given as -13.4%. Take `Cc1nnc2ccc(-c3ccc(NS(=O)(=O)c4ccccc4F)cc3)nn12`: the “hERG current change (%, negative = inhibition) at 10uM” value was -9.46%. Consider `O=C1CCOc2cc(OCc3ccccc3)ccc21`, for which the “hERG current change (%, negative = inhibition) at 10uM” value is reported as -17.5%.

For the molecule `Cc1cc(=O)oc2cc(OCC(=O)N3CC(=O)Nc4ccccc43)c(Cl)cc12`, the “hERG current change (%, negative = inhibition) at 10uM” value is -10.3%. In the case of `OC1(c2ccc(F)cc2)CSC(=Nc2cccnc2)N1Cc1ccco1` (stereo not shown), the “hERG current change (%, negative = inhibition) at 10uM” value was -14.2%. The same measure for `O=C(COC(=O)Cc1c(Cl)cccc1Cl)Nc1ccc2[nH]c(=O)[nH]c2c1`: 12.1%.

For the origin of these results see paper PMC4336329 (PLoS ONE, 2015).
